No constants are given. Whether binding was seen depends on the method and setting. In cells and extracts the contact can be indirect. Some entries that bind do so weakly or less than the wild type. For some of these results: Sequences can lack the tags named with a protein.

The chains behind the UniProt entries cited, without tags or fusion partners.
UniProt O00429: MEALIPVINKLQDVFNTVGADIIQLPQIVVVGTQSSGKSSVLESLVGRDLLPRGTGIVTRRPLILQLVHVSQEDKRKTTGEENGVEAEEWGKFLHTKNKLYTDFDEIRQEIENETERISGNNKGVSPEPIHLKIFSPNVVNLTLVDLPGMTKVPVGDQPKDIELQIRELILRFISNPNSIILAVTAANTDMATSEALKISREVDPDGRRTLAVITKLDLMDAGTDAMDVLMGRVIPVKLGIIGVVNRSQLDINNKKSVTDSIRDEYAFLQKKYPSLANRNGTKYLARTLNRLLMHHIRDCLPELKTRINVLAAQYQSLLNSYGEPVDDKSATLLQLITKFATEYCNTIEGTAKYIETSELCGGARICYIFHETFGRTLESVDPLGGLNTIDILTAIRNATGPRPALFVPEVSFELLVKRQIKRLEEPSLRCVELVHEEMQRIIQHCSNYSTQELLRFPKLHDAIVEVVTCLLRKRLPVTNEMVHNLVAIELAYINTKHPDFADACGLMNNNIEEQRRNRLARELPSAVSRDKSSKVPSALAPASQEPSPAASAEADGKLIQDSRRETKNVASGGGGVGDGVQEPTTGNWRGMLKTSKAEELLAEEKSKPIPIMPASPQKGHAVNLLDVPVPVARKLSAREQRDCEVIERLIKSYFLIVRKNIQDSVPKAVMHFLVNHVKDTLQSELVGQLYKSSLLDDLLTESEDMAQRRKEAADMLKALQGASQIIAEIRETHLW

Test [1] concerns the target T1, IFN-γ-induced endogenous GBP2 (human (endogenous in MDA-MB-231)) (UniProt P32456).
T1 sequence: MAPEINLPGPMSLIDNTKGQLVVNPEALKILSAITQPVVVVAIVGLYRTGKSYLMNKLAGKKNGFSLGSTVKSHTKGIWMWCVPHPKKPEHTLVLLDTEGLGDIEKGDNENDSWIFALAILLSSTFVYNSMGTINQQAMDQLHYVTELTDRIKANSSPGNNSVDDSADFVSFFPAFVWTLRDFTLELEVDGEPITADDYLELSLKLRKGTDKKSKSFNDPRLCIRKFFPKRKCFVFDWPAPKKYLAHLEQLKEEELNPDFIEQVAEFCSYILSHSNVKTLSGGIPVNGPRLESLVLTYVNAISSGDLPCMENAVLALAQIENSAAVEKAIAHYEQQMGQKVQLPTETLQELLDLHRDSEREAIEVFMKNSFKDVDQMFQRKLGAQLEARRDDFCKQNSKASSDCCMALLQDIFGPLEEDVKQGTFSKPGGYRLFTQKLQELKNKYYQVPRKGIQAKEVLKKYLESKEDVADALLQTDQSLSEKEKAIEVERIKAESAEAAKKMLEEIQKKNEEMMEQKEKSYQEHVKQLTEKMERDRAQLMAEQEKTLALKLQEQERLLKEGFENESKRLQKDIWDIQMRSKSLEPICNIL
Description: co-IP; IFN-γ-treated MDA-MB-231 cell lysates, anti-GBP2 or anti-Drp1 antibody, Protein G-agarose; rabbit IgG as control.

Test [2] deals with T2, GST-tagged GBP2 (human) (UniProt P32456).
T2 sequence: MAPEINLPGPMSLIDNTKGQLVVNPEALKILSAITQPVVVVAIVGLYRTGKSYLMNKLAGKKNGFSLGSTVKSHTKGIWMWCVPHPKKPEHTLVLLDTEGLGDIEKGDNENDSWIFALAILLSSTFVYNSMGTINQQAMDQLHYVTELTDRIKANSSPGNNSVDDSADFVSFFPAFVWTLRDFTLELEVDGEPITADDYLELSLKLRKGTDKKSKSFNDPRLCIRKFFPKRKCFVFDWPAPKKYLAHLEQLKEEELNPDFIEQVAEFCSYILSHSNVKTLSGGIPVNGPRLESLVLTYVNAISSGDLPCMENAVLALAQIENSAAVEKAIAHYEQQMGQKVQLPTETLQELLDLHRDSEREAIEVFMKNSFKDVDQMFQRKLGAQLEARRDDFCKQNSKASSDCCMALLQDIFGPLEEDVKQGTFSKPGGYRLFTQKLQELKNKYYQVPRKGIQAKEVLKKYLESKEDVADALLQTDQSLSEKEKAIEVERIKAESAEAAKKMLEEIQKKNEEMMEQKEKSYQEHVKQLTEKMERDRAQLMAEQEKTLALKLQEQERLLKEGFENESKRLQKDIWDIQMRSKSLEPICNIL
In words: pull-down; GST or GST-GBP2 bound to resin, incubated with MDA-MB-231 cell lysate overnight, washed with RIPA buffer; western blot with anti-Drp1; only the target purified.

Test [3] concerns the target T3, Flag-GBP2^D103L/D108L (human) (UniProt P32456).
T3 sequence: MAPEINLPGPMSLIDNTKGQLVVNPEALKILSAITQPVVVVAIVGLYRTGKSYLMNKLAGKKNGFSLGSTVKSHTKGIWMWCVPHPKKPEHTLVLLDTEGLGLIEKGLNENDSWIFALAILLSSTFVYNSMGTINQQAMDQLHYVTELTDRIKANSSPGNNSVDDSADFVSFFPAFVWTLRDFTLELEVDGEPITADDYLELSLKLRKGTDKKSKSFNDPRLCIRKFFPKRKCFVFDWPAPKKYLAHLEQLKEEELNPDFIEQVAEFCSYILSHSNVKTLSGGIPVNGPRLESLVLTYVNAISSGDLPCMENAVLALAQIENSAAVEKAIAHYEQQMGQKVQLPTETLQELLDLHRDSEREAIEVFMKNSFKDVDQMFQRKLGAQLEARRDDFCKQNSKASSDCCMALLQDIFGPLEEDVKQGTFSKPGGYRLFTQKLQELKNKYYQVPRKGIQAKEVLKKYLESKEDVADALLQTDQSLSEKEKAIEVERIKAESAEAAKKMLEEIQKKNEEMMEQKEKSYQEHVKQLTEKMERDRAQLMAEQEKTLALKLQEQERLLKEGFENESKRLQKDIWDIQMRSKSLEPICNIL
In words: co-IP; anti-Flag antibody and Protein G-agarose on lysates of transfected breast cancer cells (MDA-MB-231); lysis buffer with 1.5% n-dodecyl-b-d-maltopyranoside, 4 °C overnight; western blot for Drp1.

Test [4] concerns the target T4, Flag-GBP2^K51A (human) (UniProt P32456).
T4 sequence: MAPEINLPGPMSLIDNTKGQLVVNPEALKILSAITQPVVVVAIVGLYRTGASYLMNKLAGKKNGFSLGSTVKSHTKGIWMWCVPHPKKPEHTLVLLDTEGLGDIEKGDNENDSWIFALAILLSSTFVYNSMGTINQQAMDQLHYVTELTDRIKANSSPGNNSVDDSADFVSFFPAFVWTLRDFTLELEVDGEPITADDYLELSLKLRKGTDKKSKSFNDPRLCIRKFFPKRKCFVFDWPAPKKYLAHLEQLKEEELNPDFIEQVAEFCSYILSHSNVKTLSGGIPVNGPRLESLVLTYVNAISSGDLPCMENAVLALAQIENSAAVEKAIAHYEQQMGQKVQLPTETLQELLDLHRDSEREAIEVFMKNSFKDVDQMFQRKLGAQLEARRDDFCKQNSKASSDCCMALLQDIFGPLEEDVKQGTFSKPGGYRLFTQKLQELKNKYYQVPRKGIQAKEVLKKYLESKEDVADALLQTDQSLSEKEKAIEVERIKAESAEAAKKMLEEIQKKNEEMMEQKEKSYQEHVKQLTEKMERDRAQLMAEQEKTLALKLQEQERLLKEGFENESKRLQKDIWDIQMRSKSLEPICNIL
The description is as above.

Test [5] concerns the target T5, Flag-tagged guanylate-binding protein 1 (GBP1) (human) (UniProt P32455).
T5 sequence: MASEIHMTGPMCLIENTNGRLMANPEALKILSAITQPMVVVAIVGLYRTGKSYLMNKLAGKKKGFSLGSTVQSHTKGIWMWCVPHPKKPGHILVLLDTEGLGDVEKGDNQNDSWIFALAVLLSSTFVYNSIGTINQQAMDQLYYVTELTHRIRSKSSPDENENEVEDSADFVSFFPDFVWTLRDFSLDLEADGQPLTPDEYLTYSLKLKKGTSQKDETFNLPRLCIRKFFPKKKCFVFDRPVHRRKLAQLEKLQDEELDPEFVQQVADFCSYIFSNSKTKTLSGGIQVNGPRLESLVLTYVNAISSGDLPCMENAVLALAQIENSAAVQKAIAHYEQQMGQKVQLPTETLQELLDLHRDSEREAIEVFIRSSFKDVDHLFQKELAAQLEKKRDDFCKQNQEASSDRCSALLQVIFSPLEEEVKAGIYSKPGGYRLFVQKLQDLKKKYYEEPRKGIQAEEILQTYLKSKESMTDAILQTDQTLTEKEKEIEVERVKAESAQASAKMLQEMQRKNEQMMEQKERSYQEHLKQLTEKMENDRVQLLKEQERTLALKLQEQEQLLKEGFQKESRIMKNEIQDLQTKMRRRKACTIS
The test is described as above.

In test [6] the target is T6, Flag-tagged guanylate-binding protein 2 (GBP2) (human) (UniProt P32456).
T6 sequence: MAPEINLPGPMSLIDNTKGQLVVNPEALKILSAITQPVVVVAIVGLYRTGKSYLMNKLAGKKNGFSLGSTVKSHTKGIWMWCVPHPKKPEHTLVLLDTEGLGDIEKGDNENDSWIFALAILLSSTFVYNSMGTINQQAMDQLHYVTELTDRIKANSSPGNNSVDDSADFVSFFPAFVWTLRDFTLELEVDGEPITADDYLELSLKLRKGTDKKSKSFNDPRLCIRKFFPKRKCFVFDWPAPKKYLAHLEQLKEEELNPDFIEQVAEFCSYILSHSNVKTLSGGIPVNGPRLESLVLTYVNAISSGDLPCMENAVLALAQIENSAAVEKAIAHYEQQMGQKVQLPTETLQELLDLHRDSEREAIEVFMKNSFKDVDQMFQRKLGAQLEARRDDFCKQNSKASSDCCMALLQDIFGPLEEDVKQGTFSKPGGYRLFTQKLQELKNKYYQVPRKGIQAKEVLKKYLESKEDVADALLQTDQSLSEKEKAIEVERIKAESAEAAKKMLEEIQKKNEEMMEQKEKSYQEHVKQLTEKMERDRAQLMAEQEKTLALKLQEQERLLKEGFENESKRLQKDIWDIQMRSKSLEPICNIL
The description is as above.

For test [7], the target named is dynamin-related protein 1 (Drp1), endogenous (human (endogenous in MDA-MB-231)) (UniProt O00429). In words: co-IP; IFN-γ-treated MDA-MB-231 cell lysates, anti-GBP2 or anti-Drp1 antibody, Protein G-agarose; rabbit IgG as control.

As to “dynamin-related protein 1 (Drp1), endogenous (from UniProt O00429 1-736)”, the binding entry is “binds” in test [1]; “binds” in test [2]; “binds” in test [3]; “no binding” in test [4]; “no binding” in test [5]; “binds” in test [6].

B1: IFN-γ-induced endogenous GBP2 (protein, UniProt P32456 1-591)
chain: MAPEINLPGPMSLIDNTKGQLVVNPEALKILSAITQPVVVVAIVGLYRTGKSYLMNKLAGKKNGFSLGSTVKSHTKGIWMWCVPHPKKPEHTLVLLDTEGLGDIEKGDNENDSWIFALAILLSSTFVYNSMGTINQQAMDQLHYVTELTDRIKANSSPGNNSVDDSADFVSFFPAFVWTLRDFTLELEVDGEPITADDYLELSLKLRKGTDKKSKSFNDPRLCIRKFFPKRKCFVFDWPAPKKYLAHLEQLKEEELNPDFIEQVAEFCSYILSHSNVKTLSGGIPVNGPRLESLVLTYVNAISSGDLPCMENAVLALAQIENSAAVEKAIAHYEQQMGQKVQLPTETLQELLDLHRDSEREAIEVFMKNSFKDVDQMFQRKLGAQLEARRDDFCKQNSKASSDCCMALLQDIFGPLEEDVKQGTFSKPGGYRLFTQKLQELKNKYYQVPRKGIQAKEVLKKYLESKEDVADALLQTDQSLSEKEKAIEVERIKAESAEAAKKMLEEIQKKNEEMMEQKEKSYQEHVKQLTEKMERDRAQLMAEQEKTLALKLQEQERLLKEGFENESKRLQKDIWDIQMRSKSLEPICNIL
Take B1: in test [7], the binding result was “binds”.

The values are drawn from article PMC5680924.
